Source: PubChem BioAssay AID1963576 (National Center for Advancing Translational Sciences (NCATS), 2024)
Hit rate of the full screen: of about 46,000 compounds, about 60 (0.1%) were called active. Another 3% or so got no clear call; they are omitted. The call rests on the fitted dose curve; in most records, active means well fitted inhibition curve with a large enough effect; inconclusive means small, poorly fitted or top-dose-only effect; inactive means no such curve, though single readings can be large or run the other way. The list shows a part of the results.

Assay: Primary qHTS assay for Inhibitors of ovarian cancer metastasis using an organotypic tumor microenvironment (TME) model. Further: nearly all actives have a fitted effect of over 65% in size.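 On activity change, negative = inhibition: plate controls were DMSO wells for no effect and tomatine positive control wells for full effect.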
Settings: SKOV3ip1-GFP adhesion/invasion on 3D omental model, fluorescence; series mostly up to 45.8 µM; activity change, negative = inhibition: at the top concentration
Procedure, shortened: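 qHTS, 4-pt dose (0.36-46 umol/L); SKOV3ip1-GFP, 1,200 cells/well, no FBS; primary omental fibroblast/mesothelial co-culture 48 h pre-grown; 2 h RT + 16 h 37 C; PBS wash, 4% PFA; GFP count 488/509 nm.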

Activity change, negative = inhibition, inactive:
CCN(C(=O)c1cc2c(Cl)nc3ccc(C)cc3c2s1)c1cc(OC)ccc1OC 2.74%
CCC(=O)Nc1ccc(C)cc1-c1nc2ccccc2n(Cc2ccccc2)c1=O -9.3%
Cc1oc(-c2cccc(Cl)c2)nc1CSCC(=O)O 3.14%
COc1ccccc1CNC(=O)c1cc(-c2ccccc2)n[nH]1 -8.17%
CCOc1ccccc1NC(=O)CN1C(=O)C(=O)c2ccccc21 8.5%
CC(C)NC(=O)c1sc2ncccc2c1-n1cccc1 -1.98%
CCCc1cc(=O)oc2cc(C)c3c(-c4ccccc4)c(C)oc3c12 8.68%
CCOc1ccccc1N(CC)C(=O)c1cc2ccc3cccnc3c2[nH]1 -1.82%
CCc1ccc(S(=O)(=O)c2cnc(SCC(=O)Nc3ccc(OC)cc3OC)[nH]c2=O)cc1 3.69%
Cc1ccc2nc(NC(=O)CSc3ncc(C(=O)Nc4ccccc4)c(=O)n3C)sc2c1 0.306%
Cc1ccc(N2C(=O)C(CC(=O)Nc3ccccc3)N(CCC3=CCCCC3)C2=O)cc1 (configuration not stated) 0.94%
O=C(NCCCN1CCN(c2cccc(Cl)c2)CC1)c1nnc(Cc2ccc(F)cc2Cl)o1 -15.6%
CCOc1ccc(CCNC(=O)c2sc3nc4n(c(=O)c3c2C)CCCC4)cc1 9.05%
O=C(O)C1=CC(c2ccc(Br)cc2)n2ncnc2N1 (configuration not stated) -17.7%
Cc1ccccc1C(=O)NCc1ccc2c(c1)CCN2C(=O)c1ccc(F)cc1 -3.07%
CC1CCC(NC(=O)CCc2cn(Cc3ccc(F)cc3)c3ccccc23)CC1 (configuration not stated) 0.982%
CCOC(=O)Cn1cnc2c(cnn2-c2ccc(C)c(C)c2)c1=O 1.06%
CCS(=O)(=O)c1nc(S(=O)(=O)c2ccc(C)cc2)c(NCc2ccccc2Cl)s1 -1.82%
CCOC(=O)CSc1ncnc2c1c(-c1ccccc1)cn2-c1ccc(OC)cc1 0.336%
COc1cc2c(cc1OC)C(COc1ccc(C(C)C)cc1)N(C(=O)COc1ccccc1)CC2 (configuration not stated) -27.6%
COc1ccc(NC(=O)CC2C(=O)N(c3ccc(C)cc3)C(=O)N2C2CCCC2)cc1 (configuration not stated) -19.6%
COc1ccc(CCNC(=O)CCCn2c(=O)c3cccn3c3ccc(F)cc32)cc1OC 9.83%
CCOc1ccc(Nc2nc(Nc3ccc(OCC)cc3)nc(N3CCOCC3)n2)cc1 -7.51%
CCc1cccc(NC(=O)c2coc(=O)c3ccccc23)c1 6.19%
COC(=O)c1ccc(Cl)cc1NC(=O)N1CCC(CN2CCC(C)CC2)CC1 8.36%
COc1cccc(NC(=O)c2oc3ccccc3c2NC(=O)Cc2cccc(C)c2)c1 -0.396%
CC(NC(=O)c1cc2ccccn2n1)c1ccccc1 (configuration not stated) -3.76%
COC(=O)CN1C(=O)C(C)(C)c2cc(S(=O)(=O)Nc3ccc(C(C)C)cc3)ccc21 -0.49%
O=C(COc1ccc(Br)cc1)Nc1cccc2cccnc12 2.47%
Cc1ccccc1OCC(=O)N(Cc1ccc(C(C)C)cc1)C1CCS(=O)(=O)C1 (configuration not stated) -17.5%
O=C(NCc1ccc(Cl)cc1)c1cc(-c2ccc(F)cc2)on1 2.82%
CCOc1ccc(S(=O)(=O)n2nc(C)c(S(=O)(=O)N3CCCCC3)c2C)cc1 -0.766%
O=C(Nc1ccc(Cl)cc1C(F)(F)F)c1cc(S(=O)(=O)N2CCOCC2)ccc1F 1.47%
COc1cc(CN2CCc3nc(N4CCN(c5ccccn5)CC4)ncc3C2)cc(OC)c1OC 3.73%
COc1ccc(C(=O)Nc2cc3c(cc2N2CCCC2)n(C)c(=O)c(=O)n3C)cc1OC 6.83%
CCCC(=O)n1nc(-c2cccnc2)nc1NCc1ccc(OC)cc1 1.88%
COC(=O)c1ccccc1NS(=O)(=O)c1ccc2c(c1)CCCN2C(C)=O 4.08%
CC(=O)c1cc(-c2ccccc2)n(CCC(=O)NC(C)c2ccccc2)c1C (configuration not stated) 9.29%
CC(C)(C)OC(=O)N1CCC(c2c(C(=O)NCc3ccco3)cnn2-c2ccccc2Cl)CC1 9.4%
O=C(Nc1ccc(Br)cc1)C(Cc1ccccc1)NS(=O)(=O)c1cccc2nsnc12 (configuration not stated) 9.01%
Fc1ccc(-n2ncc3c(NCCC4=CCCCC4)ncnc32)cc1 -3.72%
Cc1cccc(C)c1NC(=O)Cn1c(=O)n(Cc2ccc3c(c2)OCO3)c(=O)c2oc3ccccc3c21 6.87%
CCOc1cc(C(=O)Nc2ccc(-c3nc4ccccc4s3)cc2Cl)cc(OCC)c1OCC 2.68%
CC(C)(C)c1ccc(C(=O)NCC(c2cccs2)S(=O)(=O)c2cccs2)cc1 (configuration not stated) -2.7%
CCc1ccc(-n2nc3cc(C)c(NC(=O)c4cc(OC)cc(OC)c4)cc3n2)cc1 1.06%
Cc1cc(C)c2c(CC(=O)Nc3ccc(S(=O)(=O)N4CCCCC4)cc3)coc2c1 -7.17%
O=C(c1cc2ccccc2oc1=O)N1CCN(c2ccc(F)cc2)CC1 -8.99%
COc1ccccc1CCNC(=O)Cc1c(C)c2cc3c(C)coc3cc2oc1=O 0.301%
CC(C)c1ccc2oc3nc(N)c(C(=O)O)cc3c(=O)c2c1 7.88%
Cc1cccc(CSCc2ccc(C(=O)NCCc3ccccc3)o2)c1 8.96%
CCOC(=O)c1ccc(Nc2c(-c3cccc(O)c3)nc3nc[nH]n23)cc1 2.93%
N#Cc1c(-n2ncnc2-c2ccccc2C(F)(F)F)sc2c1CCCCC2 -21.5%
CC(=O)c1ccc(NC(=O)CN(C)S(=O)(=O)c2cc3c(cc2Cl)NC(=O)CO3)cc1 -2.89%
CCN(CC)CCN(C(=O)c1ccco1)c1nc2cc(C)cc(C)c2s1 0.175%
Nc1c(-c2nc(-c3ccccc3)no2)nnn1CC(=O)Nc1cccc(F)c1 5.92%
COc1cccc(C2=NS(=O)(=O)N(C)C(C(=O)Nc3ccccc3SC)=C2)c1 -0.459%
O=C(NCc1cccs1)c1ccc(CSc2nc3ccncc3n2Cc2ccccc2)cc1 -12.8%
COc1cc(NC(=O)CNS(=O)(=O)c2cccs2)cc(OC)c1OC 19.2%
Fc1ccc(CSc2nc(NCc3ccccc3)c3ccccc3n2)cc1 6.59%
COc1ccc(-c2cc(C(=O)Nc3cccc(O)c3)on2)cc1OC 1.84%
Cc1ccc(Cl)cc1N1CCN(CCCNC(=O)C2COc3ccccc3C2)CC1 (configuration not stated) -3.15%
CCOC(=O)c1ccc(NC(=O)Cn2c(=O)cc(C(F)(F)F)c3c(C)nn(C)c32)cc1 0.329%
CCN(CC)c1ccc2cc(-c3nc(-c4ccccc4F)no3)c(=O)oc2c1 -1.13%
Cc1cc(C)c(S(=O)(=O)Nc2ccc(-c3ccc(N4CCCCCC4)nn3)cc2)cc1C -0.348%
Cc1cccc(NC(=O)CSc2nc3c(sc4ccccc43)c(=O)n2CCCC(=O)NC2CCCC2)c1 -5.01%
C[C@@H]1CC=CC=CC=CC=C[C@@H](O[C@@H]2O[C@H](C)[C@@H](O)[C@H](N)[C@H]2O)C[C@@H]2O[C@](O)(C[C@@H](O)C[C@@H]3O[C@@H]3C=CC(=O)O1)C[C@H](O)[C@@H]2C(=O)O 15.7%
COc1cccc(NC(=O)c2oc3ccccc3c2NC(=O)c2cc3ccccc3o2)c1 -12%
CCOC(=O)C1CCCN(c2ncnc3c2nnn3C)C1 (configuration not stated) -6.02%
COc1cccc([C@@H](C)NCCCc2ccccc2Cl)c1 -14.5%
CC(=O)c1ccc(NC(=O)Cn2c(=O)nc(-c3ccccc3)c3cc(Cl)ccc32)cc1 -7.65%

outcome, inactive:
Cn1c2ccc(F)cc2c2nnc(SCCN3CCCCC3)nc21
O=C(O)Cn1nc(N2CCN(c3ccccc3)CC2)ccc1=O
Cc1sc2c(c1C)c(=O)n(Cc1ccccc1)c(=O)n2CC(=O)Nc1cccc(Cl)c1
Cc1nn2c(=O)cc(COC(=O)COc3ccccc3C)nc2s1
COc1ccc(N2CC(NC(=O)c3ccc(S(=O)(=O)N4CCOCC4)cc3)CC2=O)cc1 (configuration not stated)
COc1ccccc1NC(=O)C1CCN(c2ncnc3c2nc2n3CCCCC2)CC1
CCOc1ccc(C(=O)c2cn(CC(=O)Nc3ccc(C)c(C)c3)c3ccc(OCC)cc3c2=O)cc1
COc1ccc(OCC(=O)N2CCN(C(=O)c3ccc(OC)cc3)CC2)cc1
Cc1cn2c(=O)cc(COC(=O)C(C)Oc3ccccc3)nc2s1 (configuration not stated)
Cc1ccc(C)c(CN2C(=O)C(O)(c3c[nH]c4ccccc34)c3ccccc32)c1 (configuration not stated)
CCc1ccc(-n2nc(CO)c(C(=O)NCCCCc3ccccc3)n2)cc1
Cc1nn(CCCC(=O)NCc2ccccc2)c(=O)c2cc3sccc3n12
COc1ccccc1NC(=O)Cn1nc(-c2ccc(C)cc2)c2c(c1=O)CCCC2
CCOc1ccc(OCC)c(NC(=O)C(NS(=O)(=O)c2cccs2)c2ccccc2)c1 (configuration not stated)
COc1ccc(C(=O)Nc2cc(S(=O)(=O)c3ccc(Cl)cc3)c(O)c(C)c2C)cc1
Cc1ccc(CNC(=O)c2c(C)oc3nc(C)nc(N4CCOCC4)c23)cc1
CCOc1cc(-c2ccc(OC(=O)c3ccc(C)cc3)c(OC)c2)cc(=O)c2c(C)oc(C)c12
Cc1ccc(C)c(Cn2c(=O)n(Cc3ccccc3)c(=O)c3c2c2cc(C)ccc2n3C)c1
CCOc1ccc(S(=O)(=O)NCCc2csc3nc(-c4ccc(F)cc4)nn23)cc1
CC1CCC(NC(=O)c2ccc(CS(=O)(=O)c3cccc(C(F)(F)F)c3)o2)CC1 (configuration not stated)
COc1ccc(CNC(=O)Cn2c(=O)cc(C)c3c(C)nn(-c4cccc(Cl)c4C)c32)cc1
Cc1ccc(C(=O)Nc2ccc(S(=O)(=O)Nc3onc(C)c3C)cc2)cc1
COc1cc(NC(=O)NCCN2CCN(c3ccccc3)CC2)cc(OC)c1OC
Cc1ccc(N(C)C(=O)CCS(=O)(=O)c2cc3c(cc2Cl)NC(=O)CO3)cc1
COc1ccc(C(=O)NCCn2cc(SC(C)c3ccccc3)c3ccccc32)cc1OC (configuration not stated)
Cc1cccc(C(=O)Nc2ccc(S(=O)(=O)N(Cc3ccccc3)c3ccccc3)cc2)c1
Cc1cccc(N2CCN(C(=O)C3CCN(c4ncnc5c4nc4n5CCCCC4)CC3)CC2)c1C
